# Over roughly 33,000 sequences, “E-score (dimensionless, -0.5 to 0.5)” has its median near -0.058; the highest 2% begin near 0.35. The list shows a part of the results.
# System: MvaT
# Assay: PBM 8-mer E-score (mean of HK and ME arrays) (E-score (dimensionless, -0.5 to 0.5)); higher = stronger relative binding preference; most listed sequences are background and not binding sites
# In short: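 Full-length P. aeruginosa MvaT carrying an N-terminal glutathione S-transferase tag was tested by protein binding microarray following a previously described protocol. Two universal double-stranded 60-mer arrays, ME and HK, were used, each with a constant 25-mer primer region and a variable 35-mer region covering all 8-mers. The rank-based E-score is the mean of the two arrays, parsed with a custom script. Its range runs from -0.5 to 0.5 for each 8-mer.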
row,Sequence,PBM 8-mer E-score
1,CATAAGGG,-0.214
2,AGAGCACT,-0.171
3,CGGGTATA,0.0683
4,AGGGTCGG,-0.241
5,CGCAAGTC,-0.135
6,AGTGTATC,0.102
7,CCCTTGCG,-0.299
8,ATGCGTAA,0.108
9,TATACCCA,0.157
10,CGTCGGAC,-0.179
11,AAGCGACC,-0.0307
12,TACAGGGA,-0.0432
13,GGAGGACA,-0.279
14,ATGCTTCA,-0.1
15,AATGGCAT,0.117
16,AATACTGA,0.251
17,AACGACCA,-0.102
18,GGGGGCTA,-0.25
19,AGAACTGG,-0.194
20,GGACCAGA,-0.128
21,ACTTTCTA,0.246
22,GAAACAAC,0.136
23,CGAGCTGC,-0.186
24,TAAGACCA,0.0406
25,ACATACGG,0.019

row,Sequence,PBM 8-mer E-score
1,CTCCACCA,-0.177
2,GGTCTAAA,0.021
3,AAAAGGGC,-0.112
4,AGGTAGAA,0.0321
5,GCACGGAA,-0.0471
6,GCGCATCA,-0.069
7,CGAGTTGA,-0.0135
8,AGCTGCTC,-0.175
9,AAAGGTGC,-0.199
10,GGGACTAA,-0.0374
11,CACGCAAA,-0.0756
12,AATTTCCA,0.219
13,GGTAGGCA,-0.167
14,CAGCTTAC,-0.0618
15,ATCGTACC,-0.17
16,AAGTCCAA,0.119
17,TAAAGGTA,0.156
18,CACTAAAG,0.099
19,CTTTGATC,-0.016
20,ATACCTCA,0.0702
21,ATTACAAC,0.338
22,AAGACAAA,0.253
23,CAGCGGAC,-0.0569
24,ACTTCCTC,-0.0365
25,CAGCCCTG,-0.254

row,Sequence,PBM 8-mer E-score
1,CTGGATTC,-0.0735
2,CGTTCCGC,-0.191
3,AGCTGCCA,-0.16
4,CAAACTAC,0.248
5,GCTCCCAC,-0.306
6,ATTTTCAA,0.175
7,ACATAGAA,0.0632
8,CCCACTTA,0.0114
9,CGCAACAG,-0.0736
10,CCAGATCG,-0.179
11,AGTACACA,-0.0147
12,GCTTTCGA,-0.0458
13,CACCTAAC,-0.0532
14,CTGGTTTA,0.21
15,TCTCGACA,0.0103
16,ATTGTTTC,0.279
17,ATGTCAGG,-0.0804
18,CCCGAGGA,-0.335
19,CAACTGTA,0.0199
20,CCACTTCG,-0.164
21,AGAGAAAG,-0.0588
22,AACAGCTG,-0.208
23,AACTGCAC,0.132
24,GCTGAAGA,-0.139
25,CGACGCAG,-0.275

row,Sequence,PBM 8-mer E-score
1,TCCCGTAA,-0.0191
2,ATTTGCTC,0.0823
3,AGATTGTG,0.0417
4,CAGCTACC,-0.311
5,CAATCCGG,-0.16
6,ATTGCTCA,0.0587
7,AAGGAGCC,-0.312
8,AAACTTTC,0.312
9,AGGGGCGC,-0.251
10,ACAGGCGT,-0.178
11,ATCTTTAA,0.275
12,ACTTATAT,0.424
13,CGGTGTTC,-0.144
14,AGGAGGAG,-0.283
15,CTTTGATA,0.0367
16,CAAAGCAG,-0.000532
17,CCATGCTC,-0.185
18,CAAAAGAA,0.0186
19,CTCTGTGC,-0.109
20,CAAGATTA,0.204
21,CTTGTCTC,-0.131
22,AAAGCCCC,-0.306
23,CAGAGAAA,-0.00544
24,ATCGTGTC,-0.0975
25,AATTTACG,0.241

row,Sequence,PBM 8-mer E-score
1,ACCAGTCG,-0.162
2,AAGTCGGC,-0.0898
3,GAGATGCA,-0.155
4,ATGCTGGG,-0.0999
5,AGGCGAAT,0.153
6,GGTACGAA,-0.031
7,GCTCACAC,-0.19
8,CAATCCCA,-0.0152
9,ATACATGG,0.0464
10,CGCTTGAA,-0.0274
11,AAACAATC,0.06
12,ATTAATGA,0.363
13,ACGTGAGG,-0.104
14,ATCAGAGG,-0.21
15,CAGACCGG,-0.125
16,CTGAATCA,-0.061
17,GCATGGAC,-0.155
18,GTTGTTTA,0.181
19,AGGCCAAC,-0.137
20,CGAGACAC,-0.128
21,ACTCTAGA,0.0846
22,ATCTTGGA,0.0448
23,ATAAACGA,0.284
24,CAACGACG,-0.0325
25,AGCGTGTG,-0.0365

row,Sequence,PBM 8-mer E-score
1,GCGGCCGC,-0.206
2,ACGAAGTC,-0.289
3,ACACTCAT,0.0197
4,CCCTAATC,-0.103
5,CATGCCCA,-0.15
6,ACGAAAGG,-0.0998
7,GCGGTTAA,0.119
8,GACCTAGC,-0.145
9,CTCGTGAA,-0.224
10,CCATCGGA,-0.255
11,CACGAGAA,-0.135
12,GCTTTTAC,-0.0486
13,GTGAACGA,-0.0266
14,ACGGTTTA,0.136
15,ACTTATCT,0.262
16,AGAGGCCG,-0.259
17,ATATAAAA,0.431
18,CCGGCACA,0.0625
19,GCATAACA,0.0163
20,CGATCGAG,-0.137
21,ATTGATGC,-0.151
22,GACGTCAA,-0.0837
23,ACGCGTCT,-0.0662
24,AGTGCCCG,-0.199
25,CTGCGCTC,-0.103

row,Sequence,PBM 8-mer E-score
1,GCAAGTGC,-0.0178
2,AACCCTAA,-0.00373
3,ATAGAAGG,-0.18
4,AGCCCCTG,-0.262
5,ATGATGTG,0.0462
6,ATAGGTCC,-0.182
7,AACGTAAA,0.22
8,AACGGCGC,-0.0108
9,CGTCCGAA,-0.119
10,GTCTTTTA,0.21
11,CACGGCAG,-0.214
12,AGATTTTC,-0.143
13,CGTCAGAC,-0.24
14,ACAGGGCC,-0.038
15,AACCGTTG,-0.0901
16,CGTGGACA,-0.0353
17,ACGGTCGA,-0.241
18,CGCATGCG,-0.12
19,AAAACTGC,0.0676
20,CTAGGAAC,-0.145
21,CTACAGCC,-0.106
22,AAAGCCGT,-0.118
